{"source": "paper PMC4336329", "about": "(PLoS ONE, 2015)", "note": "The whole screen tested about 310,000 compounds, of which about 2,200 (0.71%) showed an effect of 50% or more. The effect is printed as a negative number. This is one part of the list.", "data": [{"biological_target": "human ether-à-go-go-related gene (hERG) potassium channel (human, UniProt Q12809)", "sequence (Q12809 whole entry, looked up)": "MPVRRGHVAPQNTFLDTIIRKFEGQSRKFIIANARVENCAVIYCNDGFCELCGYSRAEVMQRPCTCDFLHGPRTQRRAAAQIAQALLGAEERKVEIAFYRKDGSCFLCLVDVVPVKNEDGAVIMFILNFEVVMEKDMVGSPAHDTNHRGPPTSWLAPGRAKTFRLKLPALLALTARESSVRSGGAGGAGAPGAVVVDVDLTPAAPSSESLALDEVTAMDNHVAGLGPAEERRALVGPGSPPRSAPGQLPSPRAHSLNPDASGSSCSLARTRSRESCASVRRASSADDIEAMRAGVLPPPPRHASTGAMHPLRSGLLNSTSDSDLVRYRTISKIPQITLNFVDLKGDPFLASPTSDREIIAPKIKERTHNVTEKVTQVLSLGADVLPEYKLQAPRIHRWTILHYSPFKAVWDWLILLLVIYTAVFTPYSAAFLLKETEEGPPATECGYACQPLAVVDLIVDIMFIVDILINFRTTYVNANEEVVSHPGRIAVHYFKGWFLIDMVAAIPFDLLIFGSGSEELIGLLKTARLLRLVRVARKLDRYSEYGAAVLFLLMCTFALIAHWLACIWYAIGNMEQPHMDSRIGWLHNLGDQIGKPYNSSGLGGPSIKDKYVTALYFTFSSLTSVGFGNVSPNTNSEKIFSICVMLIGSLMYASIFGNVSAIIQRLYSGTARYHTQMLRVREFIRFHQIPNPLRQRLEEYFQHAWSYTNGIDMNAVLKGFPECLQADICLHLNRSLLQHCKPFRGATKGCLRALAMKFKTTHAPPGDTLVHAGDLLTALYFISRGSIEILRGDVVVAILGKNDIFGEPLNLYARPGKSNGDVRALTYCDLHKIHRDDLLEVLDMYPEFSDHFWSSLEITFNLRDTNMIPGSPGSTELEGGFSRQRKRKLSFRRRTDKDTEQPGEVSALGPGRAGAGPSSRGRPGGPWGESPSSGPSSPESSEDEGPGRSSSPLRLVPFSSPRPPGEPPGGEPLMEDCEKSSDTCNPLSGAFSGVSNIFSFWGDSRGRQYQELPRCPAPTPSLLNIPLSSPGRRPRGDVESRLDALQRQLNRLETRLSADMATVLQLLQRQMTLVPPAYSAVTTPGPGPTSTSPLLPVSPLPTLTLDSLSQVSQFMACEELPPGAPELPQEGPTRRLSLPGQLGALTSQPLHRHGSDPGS", "assay": "primary screen, population patch clamp on CHO cells stably expressing hERG", "units": {"hERG current change (%, negative = inhibition) at 1uM": "%"}, "values": [{"smiles": "O=C1OCC2=C1C(c1ccccc1)CC(=O)N2c1ccc(F)cc1", "note": "(stereo not drawn)", "hERG current change (%, negative = inhibition) at 1uM": 10.9}, {"smiles": "O=C(CSc1cccc2cccnc12)Nc1ccc(S(=O)(=O)N2CCOCC2)cc1", "hERG current change (%, negative = inhibition) at 1uM": -1.7}, {"smiles": "CN1CCN(C(=O)c2ccc(CS(=O)(=O)c3c(Cl)cccc3Cl)o2)CC1", "hERG current change (%, negative = inhibition) at 1uM": 2.21}, {"smiles": "O=C(CC(NS(=O)(=O)c1ccc(Cl)cc1)c1ccco1)NCc1ccco1", "note": "(stereo not drawn)", "hERG current change (%, negative = inhibition) at 1uM": -0.93}, {"smiles": "Cc1cc(C)c(C#N)c(N2CCN(S(=O)(=O)Cc3ccccc3)CC2)n1", "hERG current change (%, negative = inhibition) at 1uM": 14.8}, {"smiles": "Fc1ccccc1Cc1noc(CN2CCC(OCc3cccnc3)CC2)n1", "hERG current change (%, negative = inhibition) at 1uM": 5.91}, {"smiles": "CCOC(=O)Cn1nc(-c2ccccc2)nc1-c1ccccc1", "hERG current change (%, negative = inhibition) at 1uM": 4.99}, {"smiles": "O=C(c1cccc(S(=O)(=O)N2CCCCC2)c1)N1CCN(S(=O)(=O)c2ccc(F)cc2)CC1", "hERG current change (%, negative = inhibition) at 1uM": -6.85}, {"smiles": "CCN(CC(=O)Nc1c(F)cccc1F)C(=O)c1ccc(N2CCOCC2)c([N+](=O)[O-])c1", "hERG current change (%, negative = inhibition) at 1uM": 18.5}, {"smiles": "O=C(Nc1ccc(OC(=O)N2CCCCC2)cc1)N1CCOCC1", "hERG current change (%, negative = inhibition) at 1uM": 3.04}, {"smiles": "O=C(c1cccc2c1C(=O)N(Cc1cccnc1)C2)N1CCN(c2ccccc2)CC1", "hERG current change (%, negative = inhibition) at 1uM": 7.09}, {"smiles": "CC(c1nnc(Sc2nnnn2-c2ccccc2)n1-c1ccc(F)cc1)N(C)C", "note": "(stereo not drawn)", "hERG current change (%, negative = inhibition) at 1uM": 7.75}, {"smiles": "CCOC(=O)C1=C(C)N(C)C2(C)CC1c1ccccc1O2", "note": "(stereo not drawn)", "hERG current change (%, negative = inhibition) at 1uM": 4.8}, {"smiles": "COc1cccc(NC(=O)COc2cc(O)c3c(c2)OC(C)(C)CC3=O)c1", "hERG current change (%, negative = inhibition) at 1uM": -4.39}, {"smiles": "COCCn1c(C)c(C)c2c(NCCc3ccccc3)ncnc21", "hERG current change (%, negative = inhibition) at 1uM": 10.4}, {"smiles": "CCCS(=O)(=O)N1CCC(C(=O)NC2CCC(C)CC2)CC1", "note": "(stereo not drawn)", "hERG current change (%, negative = inhibition) at 1uM": 11.2}, {"smiles": "CCCc1cc(=O)oc2cc(OCC(=O)N3CCC(C(N)=O)CC3)ccc12", "hERG current change (%, negative = inhibition) at 1uM": -2.76}, {"smiles": "O=C(Cc1ccc(Cl)cc1)Nc1cc(S(=O)(=O)N2CCOCC2)ccc1N1CCCC1", "hERG current change (%, negative = inhibition) at 1uM": 4.84}, {"smiles": "CCOC(=O)Cn1c2ccccc2c2nc(C)sc21", "hERG current change (%, negative = inhibition) at 1uM": 5.47}, {"smiles": "CCCN1CCC(NC(=S)Nc2cccc(Cl)c2Cl)CC1", "hERG current change (%, negative = inhibition) at 1uM": 17.7}, {"smiles": "COc1cccc(C(=O)Nc2ncc3c(n2)CC(C)(C)CC3=O)c1", "hERG current change (%, negative = inhibition) at 1uM": 7.2}, {"smiles": "CCCCN(CC)CCNC(=S)Nc1ccc2nc(N3CCN(C)CC3)cc(C)c2c1", "hERG current change (%, negative = inhibition) at 1uM": 9.98}, {"smiles": "COc1ccc(OC)c(C2C3=C(CC(C)(C)CC3=O)Nc3nnnn32)c1", "note": "(stereo not drawn)", "hERG current change (%, negative = inhibition) at 1uM": 7.43}, {"smiles": "CC1(C)Cc2c(sc(NC(=O)c3ccco3)c2C#N)C(C)(C)N1", "hERG current change (%, negative = inhibition) at 1uM": 5.8}]}]}
